According to the supplement of paper PMC11417369:
The list shows a part of the results.

The sequences below were run on PfHDP1 homeodomain (GST-tagged) (assay: gcPBM binding intensity (ln(normalized median fluorescence intensity)); higher = stronger DNA binding).
In short: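 Each value is the highest Masliner-normalised natural-log median intensity across replicate spots of either orientation of a probe. The probes were primer-extended double-stranded 36-bp intergenic genomic sequences on an Agilent 4 × 180k array, alongside negative controls, exposed for 1 h to GST-tagged P. falciparum DNA-binding domains expressed in E. coli. Bound protein was picked up with Alexa488 anti-GST antibody and scanned at 488 nm.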

Sequence | gcPBM binding intensity (ln)
TCTTCATTTTTATGTGCATGTAAAATTTTTTTTTTT [TGCATGCA_site963] | 10
AGAGGATCATAGTTATGTACACATATTTAACATAAA [XGTACX_site7232] | 6.27
ATAACATCAGTATTATGTACATATGTAGGTAAATAA [XGTACX_site7066] | 6.89
CGTTATTATACACATACACACAGGAATAAAAAATTA [CACACA_site7373] | 7.11
TTTTATTGTTTTTTTTTTTTTTCTTTTTTTTTTTTT [CACACA_negctrl_site1094] | 5.99
TTTTATCAAATATTTATTTTATACATAAATATTTAT [XGTACX_negctrl_site528] | 6.3
ATTTTGTGTAGTGATGCATGTTATATATATATTTGA [TGCATGCA_site422] | 7.25
AGAAACATATGGTAGTGTACTGTAAATTTATTCTTT [XGTACX_site8602] | 6.56
ACTATTATTAAAAATTGTACTTTCTATAAATTTTTT [XGTACX_site7825] | 6.47
TTCTGACTTGTTATAATTTGTATATCCGAAAAAATT [TGCATGCA_negctrl_site456] | 6.27
TACATATTTTGTATATATTATTTATTTTATTAGTTT [XGTACX_negctrl_site85] | 6.21
CATACTGTTATAAAATGTACGCATATACACACACAT [XGTACX_site7256] | 7.1
GATCTATACATGGGGACACACATCACTCTATATTTT [CACACA_site3408] | 6.7
ATTTGTTATATATTCTTTTATGTTAATAATTCGAAT [CACACA_negctrl_site378] | 6.37
AAAAAATACAAACACACACACACACCCATATATATA [CACACA_site3560] | 7.01
TATGAATAAAAAAGAAGTACAAATTATATGAACGCA [XGTACX_site3018] | 6.93
CTTTTTATTTAGGAGGTGCATGTAATACGGAACATA | 8.26
TTTTGTTTAATATTCACACATATATATTTTTTATTT [CACACA_site5496] | 6.8
GGTAATTTCCTTTTTTGTACTCATAGAAGGATAATA [XGTACX_site89] | 6.4
TTTCTTCTTCTATTGTGTACGTAAAAAAAAAAAAAA [XGTACX_site772] | 6.55
TTTGAAATATTAAATGCATGTTAAAACATAAAAATG [TGCATGCA_site680] | 6.59
ATTATATTAAAATACACACCCAAATATTAAAAAGAT [CACACA_site5613] | 7.39
TGATAAAATGGGGAAATTCATTATATCATATCTTGG [CACACA_negctrl_site789] | 6.36

Sequence | gcPBM binding intensity (ln)
TTGGATAAAAAATATGTACACACATATAGATATCTA [CACACA_site8862] | 6.31
AAGAAAAAAATTTAATTAAATGAAATTTTTGAATTA [TGCATGCA_negctrl_site25] | 5.97
AAGACTGCACTTTAAGCACACAAATATATTTTTTTT [CACACA_site8337] | 8.04
AAATTAATATATAAAAGTACCCATATATTTAATATA [XGTACX_site3551] | 6.09
TTTTTTTTTTGTTGAGTGCAATTATTTGTAAGAAAA | 8.7
TCAAAGCACCCATACACACACATATATATATATATA [CACACA_site4317] | 9.46
GTACGTTACATAAATGTGCACATATTATATGCGAAG | 10.7
GTCATATATATATGTACACACATATATATATTTATA [CACACA_site1459] | 6.45
AGTTTGTTTTTTTTTTTTTTTTCCTGTCACAAACAA [CACACA_negctrl_site1093] | 6.48
TATAACAAAATATTCACACATATAAGTAAATAAAGG [CACACA_site5777] | 6.57
TCTCCACCTCTCTTGGTGCGTTATACCCTCGAGGCT | 7.09
TCAGATATATATATATAAATATATATTTTGAAATGT [CACACA_negctrl_site686] | 6.55
TAGTATCCAAGAAAAAGTACTTATTTTAATTTTTTA [XGTACX_site6243] | 5.85
TCATTTAAGTAGACGCGTACGGAAATTACGAATCCT [XGTACX_site144] | 6.16
AATATTTATAAAGACACACAAACAAAAAGGATAAAA [CACACA_site2985] | 7.54
AAAAATAAAGGATATACACACTAATTATATATATAT [CACACA_site5550] | 8.49
AAAGTGGCCATATATTTTTTTTTTTTTTTCCTTATT [CACACA_negctrl_site485] | 5.91
ATTATTATATTTATATGTACATAGAAAAAATTAAAT [XGTACX_site2058] | 6.47
GTGTTAACTATTATGAGTACTTATGTATTAATTCAT [XGTACX_site7767] | 6.74
TTGCTTATTAAATGGGGTACATTATATATATATATA [XGTACX_site2515] | 8.97
GTTTACTAATATTGCACACGAATATGAAAAAGAGAA [CACACA_site2897] | 10.6
TTTCTAATTTATATCACACACATATATTTATAGTAA [CACACA_site6280] | 6.53
